26 compounds from the antibiotic and cytotoxicity screens of Wong et al. (2023) can be followed below.

The test system of one assay is HSkMC. Kind of assay: cytotoxicity call (relative viability < 0.9). As to conditions: 10 µM.
The next assay has as its system HepG2. Kind of assay: cytotoxicity call (relative viability < 0.9). To be noted: 10 µM.
The test system of a further assay is S. aureus RN4220. In words: growth inhibition call (relative growth <= 0.2). As to conditions: 50 µM.

Some of the results follow.

Consider `C[C@@H]1CN([C@@H](C)CO)C(=O)c2cccc(NC(=O)Nc3ccc(C(F)(F)F)cc3)c2O[C@H]1CN(C)Cc1ccc(C(=O)O)cc1`, for which the cytotoxicity call in the assay on HSkMC and in the assay on HepG2 was “inactive” in each case. Also, the growth inhibition call in the assay with S. aureus RN4220 is “inactive”.

For the compound `C[C@H](CO)N1C[C@H](C)[C@@H](CN(C)C(=O)Nc2ccc(C(F)(F)F)cc2)OCCCC[C@H](C)Oc2ccc(NS(=O)(=O)c3cn(C)cn3)cc2C1=O`, the cytotoxicity call in the assay with HSkMC and in the assay on HepG2 was “inactive” throughout. Besides, the growth inhibition call in the assay on S. aureus RN4220 was “active”.

As for `CCS(=O)(=O)N1CC[C@]2(CC1)CN([C@H](CO)c1[nH]c3cc(ccc3c12)OC)C(=O)c1ccc(cc1)F`, the cytotoxicity call with HSkMC and with HepG2 was “inactive” in each case. In addition, the growth inhibition call with S. aureus RN4220 is “inactive”.

For the compound `COc1ccc(S(=O)(=O)Nc2ccc3c(c2)C(=O)N([C@@H](C)CO)C[C@@H](C)[C@@H](CN(C)CC2CCCCC2)OCCCC[C@@H](C)O3)cc1`, the cytotoxicity call in the assay on HSkMC is “inactive”. The cytotoxicity call in the assay with HepG2 is “active”. Moreover, in the assay with S. aureus RN4220, the growth inhibition call was “inactive”.

With `COc1ccc(NC(=O)N(C)C[C@@H]2Oc3c(NC(=O)C4CCOCC4)cccc3C(=O)N([C@@H](C)CO)C[C@@H]2C)cc1`, the cytotoxicity call in the assay with HSkMC and with HepG2 was “inactive” throughout. In addition, the growth inhibition call in the assay on S. aureus RN4220 was “inactive”.

Regarding `C[C@@H]1CN([C@H](C)CO)C(=O)c2cccc(NS(=O)(=O)c3ccc(F)cc3)c2O[C@@H]1CN(C)Cc1ccc(-c2ccccc2)cc1`, the cytotoxicity call with HSkMC and in the assay with HepG2 was “inactive” in each case. Besides, the growth inhibition call in the assay with S. aureus RN4220 was “inactive”.

As to `C[C@H](O)C#Cc1ccc2c(c1)O[C@H](CN(C)C(=O)c1ccncc1)[C@@H](C)CN([C@H](C)CO)S2(=O)=O`, the cytotoxicity call in the assay with HSkMC and in the assay with HepG2 was “inactive” each time. Moreover, in the assay with S. aureus RN4220, the growth inhibition call was “inactive”.

`O=C(O)CCNC(=O)c1ccccc1`: the cytotoxicity call in the assay with HSkMC and in the assay with HepG2 was “inactive” throughout. In the assay on S. aureus RN4220, the growth inhibition call was “inactive”.

With `C[C@H](C(=O)O)N1C(=O)CSC1=O`, the cytotoxicity call in the assay on HSkMC and with HepG2 was “inactive” throughout. Besides, the growth inhibition call in the assay with S. aureus RN4220 was “inactive”.

For `COc1ccc(S(=O)(=O)N(C)C[C@H]2Oc3cc(C#CC4CCCC4)ccc3S(=O)(=O)N([C@H](C)CO)C[C@@H]2C)cc1`, the cytotoxicity call in the assay with HSkMC and in the assay on HepG2 was “inactive” each time. The growth inhibition call with S. aureus RN4220 was “inactive”.

On to `C[C@H](CO)N1C[C@H](C)[C@@H](CN(C)S(C)(=O)=O)Oc2c(NC(=O)CCC(F)(F)F)cccc2C1=O`, for which the cytotoxicity call in the assay with HSkMC and with HepG2 was “inactive” each time. For the same compound, in the assay with S. aureus RN4220, the growth inhibition call was “inactive”.

Turning to `C[C@H](CO)N1C[C@H](C)[C@@H](CN(C)CC2CCOCC2)Oc2ncc(C#CCc3ccccc3)cc2C1=O`, the cytotoxicity call in the assay with HSkMC and with HepG2 was “inactive” each time. The growth inhibition call in the assay on S. aureus RN4220 was “inactive”.

In the case of `COc1ccc(NC(=O)Nc2ccc3c(c2)C(=O)N([C@@H](C)CO)C[C@@H](C)[C@@H](CN(C)Cc2ccc4c(c2)OCO4)OCCCC[C@H](C)O3)cc1`, the cytotoxicity call in the assay with HSkMC and in the assay on HepG2 was “inactive” each time. For the same compound, in the assay with S. aureus RN4220, the growth inhibition call was “inactive”.

Take `CC(C)c1c(O)ccc2c1CCC1C(C)(C)C(=O)CCC21C` (stereo not drawn): the cytotoxicity call with HSkMC and in the assay on HepG2 was “inactive” each time. Moreover, the growth inhibition call in the assay on S. aureus RN4220 is “inactive”.

With `C[C@@H]1CCCCO[C@H](CN(C)C(=O)Nc2ccc(C(F)(F)F)cc2)[C@H](C)CN([C@H](C)CO)C(=O)c2cc(NS(C)(=O)=O)ccc2O1`, the cytotoxicity call in the assay on HSkMC and with HepG2 was “inactive” throughout. The growth inhibition call in the assay on S. aureus RN4220 is “inactive”.

With `C[C@@H]1CN([C@H](C)CO)C(=O)Cc2cc(NC(=O)Nc3ccc(F)cc3)ccc2O[C@@H]1CN(C)C(=O)Nc1cccc2ccccc12`, the cytotoxicity call with HSkMC and in the assay with HepG2 was “inactive” in each case. In addition, the growth inhibition call with S. aureus RN4220 is “inactive”.

Consider `C[C@@H]1CN([C@H](C)CO)C(=O)c2cccc(NS(=O)(=O)c3ccccc3)c2O[C@H]1CN(C)Cc1ccncc1`, for which the cytotoxicity call with HSkMC and with HepG2 was “inactive” each time. Moreover, the growth inhibition call with S. aureus RN4220 was “inactive”.

Take `CC(=O)NCCCC[C@@H]1NC(=O)[C@H]2C[C@@H](C(=O)NCCCCCCNC(=O)CS)[C@@H](c3ccc(O)cc3)N2C1=O`: the cytotoxicity call with HSkMC and with HepG2 was “inactive” in each case. In addition, the growth inhibition call in the assay with S. aureus RN4220 was “inactive”.

`C[C@H](CO)N1C[C@H](C)[C@@H](CN(C)CC2CCCCC2)Oc2ccc(NC(=O)Cn3cnnn3)cc2CC1=O`: the cytotoxicity call with HSkMC and in the assay on HepG2 was “inactive” each time. The growth inhibition call in the assay on S. aureus RN4220 was “inactive”.

Take `COc1ccc2c(c1OCc1ccccc1)C[C@@H](C(=O)O)N(C(=O)C(c1ccccc1)c1ccccc1)C2`: the cytotoxicity call in the assay with HSkMC and with HepG2 was “inactive” each time. Moreover, in the assay with S. aureus RN4220, the growth inhibition call was “inactive”.

With `Cc1noc(C)c1S(=O)(=O)Nc1ccc2c(c1)C(=O)N([C@@H](C)CO)C[C@@H](C)[C@H](CN(C)Cc1ccc(-c3ccccc3)cc1)O2`, the cytotoxicity call in the assay on HSkMC and with HepG2 was “inactive” each time. The growth inhibition call in the assay with S. aureus RN4220 was “inactive”.

With `COc1ccc(S(=O)(=O)Nc2ccc3c(c2)CC(=O)N([C@H](C)CO)C[C@H](C)[C@@H](CN(C)S(C)(=O)=O)O3)cc1`, the cytotoxicity call with HSkMC and in the assay on HepG2 was “inactive” each time. In addition, the growth inhibition call in the assay with S. aureus RN4220 was “inactive”.

For the compound `COc1cccc(NC(=O)N(C)C[C@@H]2Oc3cc(C#Cc4ccncc4)ccc3S(=O)(=O)N([C@H](C)CO)C[C@@H]2C)c1`, the cytotoxicity call with HSkMC was “inactive”. The cytotoxicity call in the assay with HepG2 is “active”. The growth inhibition call with S. aureus RN4220 is “inactive”.

Take `NCCCC(N)C(=O)O.NCCCC(N)C(=O)O.O=C(O)CCC(=O)C(=O)O`: the cytotoxicity call in the assay on HSkMC and in the assay with HepG2 was “inactive” each time. In the assay with S. aureus RN4220, the growth inhibition call is “inactive”.

For the compound `NCCS(=O)(=O)N1CCN(c2ccc(F)cc2)CC1`, the cytotoxicity call with HSkMC and in the assay on HepG2 was “inactive” in each case. In addition, the growth inhibition call in the assay with S. aureus RN4220 was “inactive”.

Turning to `CCC[C@@H](O)C#Cc1cnc2c(c1)C(=O)N([C@H](C)CO)C[C@H](C)[C@H](CN(C)S(=O)(=O)c1ccccc1)O2`, the cytotoxicity call in the assay on HSkMC (human skeletal muscle cells) and in the assay with HepG2 was “inactive” each time. Also, the growth inhibition call in the assay on S. aureus RN4220 was “inactive”.
